# Measured values taken from PubChem BioAssay AID485344 (National Center for Advancing Translational Sciences (NCATS), 2010).
# Among all 340,000 compounds or so, about 6,900 (2%) were called active. Cut-off read from the data, not from the text of the source: active = inhibition above about 30%; inactive = below that, where a call was filed. This is a selection; strong and weak results do not stand in their true shares. Where no call is shown, the source filed none.
# Molecular target: D(2) dopamine receptor (Homo sapiens) (UniProt P14416)
# Experiment: HTS Assay for Allosteric Antagonists of the Human D2 Dopamine Receptor: Primary Screen for Antagonists; note: 0% is about no effect
# Settings: HEK293 TREx D2 cells, calcium flux, dopamine EC80; at 10 µM; stronger effect = higher value
# Procedure, shortened: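 Inhibition of EC80 dopamine-driven calcium flux, recorded kinetically, defines activity here; cells are a tetracycline-induced HEK293 T-REx line expressing force-coupled D2.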
# Sequence of UniProt P14416 (P14416 whole entry, looked up): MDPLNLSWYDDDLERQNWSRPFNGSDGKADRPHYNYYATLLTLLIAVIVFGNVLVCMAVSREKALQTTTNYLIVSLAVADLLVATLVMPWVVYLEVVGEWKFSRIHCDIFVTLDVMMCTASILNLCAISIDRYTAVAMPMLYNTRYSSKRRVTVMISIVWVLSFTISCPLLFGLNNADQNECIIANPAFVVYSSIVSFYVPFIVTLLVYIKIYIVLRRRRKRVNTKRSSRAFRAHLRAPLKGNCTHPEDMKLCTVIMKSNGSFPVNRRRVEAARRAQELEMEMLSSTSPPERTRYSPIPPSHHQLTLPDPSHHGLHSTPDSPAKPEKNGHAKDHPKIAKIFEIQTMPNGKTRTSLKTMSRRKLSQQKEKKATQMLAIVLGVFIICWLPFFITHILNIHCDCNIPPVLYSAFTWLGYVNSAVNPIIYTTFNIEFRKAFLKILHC
row,SMILES,inhibition
1,O=S(=O)(c1ccccc1)c1nc(-c2cccc(Cl)c2)oc1N1CCOCC1,16.8%
2,COc1ccc(-c2nc(CSc3nnc(C)n4c3cc3oc(C)cc34)c(C)o2)cc1OC,7.79%
3,CCN(CCCNC(=O)c1ccc(Sc2ccc(Cl)cc2)c(NC(C)=O)c1)c1ccccc1,-5.89%
4,CCn1cc2nc(SCc3ccc(F)cc3)n(CCc3ccccc3)c(=O)c2n1,2.02%
5,CCN(CC)S(=O)(=O)c1nnc(NC(=O)c2ccc(Br)cc2)s1,-3.65%
6,COc1ccc2cc(CNc3ccc(C)cc3)c(=O)n(CC(=O)Nc3cccc(Cl)c3C)c2c1,-6.59%
7,COc1cc(Cl)c(C)cc1NC(=O)c1cnn(-c2ccc(F)cc2F)c1C1CCN(C(=O)OC(C)(C)C)CC1,22.5%
8,CCOC(=O)c1c(NC(=O)COc2ccccc2Br)sc2c1CCCCC2,8.49%
9,Cc1ccc(-c2nnc(Nc3ccccc3)c3ccccc23)cc1S(=O)(=O)N1CCN(C)CC1,-7.11%
10,CC(C)(C)c1ccc(C(=O)N(Cc2ccc(F)cc2)Cc2ccco2)cc1,13%
11,CC(C)c1ccc(N(C(=O)CNC(=O)c2ccco2)C(C(=O)NC2CCCC2)c2ccncc2)cc1 (stereo unspecified),active: 31.4%
12,O=C(Cn1ncc2c(=O)oc3ccccc3c21)N1CCN(c2ccc(Cl)cc2)CC1,25.2%
13,CCc1ccccc1NC(=S)NC1CC2CCCC(C1)N2Cc1cccs1 (stereo unspecified),active: 71.7%
14,COc1cccc(CSc2nc(-c3ccccc3F)nc3c2Cc2c(CO)cnc(C)c2O3)c1,9.15%
15,COc1ccc(-n2nc3c(N4CCC(C(=O)NCCc5ccccc5)CC4)nnc(C)c3c2C)cc1,8.35%
16,COc1cccc(C(=O)NCCCNC(=O)c2cccnc2)c1,active: 38.9%
17,COCCCNC(=O)CCCn1c(=O)c2cccn2c2ccccc21,18.7%
18,COc1ccccc1CNC(=O)CCC1N=C2c3ccccc3N=C(SCc3ccc(Cl)cc3)N2C1=O (stereo unspecified),-4.47%
19,O=C1CCCc2cc(S(=O)(=O)NCC3CCC(C(=O)NCc4ccc(F)cc4)CC3)ccc2N1 (stereo unspecified),-1.41%
20,O=C(Nc1cccc(C(F)(F)F)c1)c1cccc(C(=O)Nc2cccc(C(F)(F)F)c2)c1,-3.09%
21,Cc1ccc(N2CCN(S(=O)(=O)c3ccc(Cl)c4ccccc34)CC2)c(C)c1,4.5%
22,CCOC(=O)c1c(C)c(-c2ccccc2)n(CC(=O)Nc2cc(C)cc(C)c2)c1C,13.2%
23,O=C(c1cc(Br)ccc1OC(F)F)N1CCN2CCCC2C1 (stereo unspecified),active: 32.8%
24,COc1ccc(CCN(C)C(=O)C2CCN(Cc3ccc(C)cc3)CC2)cc1OC,active: 47.1%
25,Cc1ccc(CNC(=O)Cc2ccc(NC(=O)N3CCSc4ncccc43)cc2)cc1,2.76%
26,CCCNC(=O)c1ccc(Cn2c(=O)c3cccn3c3cccnc32)cc1,-7.51%
